Laboratory results as given in PubChem BioAssay AID1030 (National Center for Advancing Translational Sciences (NCATS), 2008).
Screen size: about 220,000 compounds; about 16,000 (7.3%) were called active. Inconclusive means that the source gave no clear call. Such entries were picked first, then a sample of the others. The call rests on the fitted dose curve; in most records, active means well fitted inhibition curve with a large enough effect (not every such curve was filed as active); inconclusive means small, poorly fitted or top-dose-only effect, or another doubt; inactive means no such curve, though single readings can be large or run the other way. Potencies of inconclusive entries are left out as doubtful fits.

Molecular target: Aldehyde dehydrogenase 1A1 (Homo sapiens) (UniProt P00352)
Chain of UniProt P00352 (P00352 whole entry, looked up): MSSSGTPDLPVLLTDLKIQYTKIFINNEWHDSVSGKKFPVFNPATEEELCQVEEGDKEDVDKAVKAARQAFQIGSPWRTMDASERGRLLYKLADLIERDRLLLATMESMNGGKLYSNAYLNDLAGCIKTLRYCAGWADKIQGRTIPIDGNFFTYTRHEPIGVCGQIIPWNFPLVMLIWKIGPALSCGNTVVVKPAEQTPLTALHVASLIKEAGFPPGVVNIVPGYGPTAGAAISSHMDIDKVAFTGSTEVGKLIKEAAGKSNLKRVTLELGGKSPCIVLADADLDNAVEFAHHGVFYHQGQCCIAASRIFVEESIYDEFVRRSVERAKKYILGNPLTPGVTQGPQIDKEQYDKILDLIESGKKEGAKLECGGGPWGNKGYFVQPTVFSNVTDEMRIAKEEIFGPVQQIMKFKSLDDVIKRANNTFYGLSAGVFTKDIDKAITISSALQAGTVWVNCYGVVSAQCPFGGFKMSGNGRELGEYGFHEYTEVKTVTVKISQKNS
Assay: qHTS Assay for Inhibitors of Aldehyde Dehydrogenase 1 (ALDH1A1);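 on activity, negative = inhibition: plate controls were no enzyme wells and a reference inhibitor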
Conditions: Purified ALDH1A1, NADH fluorescence, propionaldehyde substrate; series mostly up to 75.3 µM
Potency means the concentration at half of the fitted maximal effect; tags describe the fitted curve by direction and shape.

| SMILES | Potency | activity, negative = inhibition |
| --- | --- | --- |
| CCN1CCN(c2cc(SC(C)C)nc(-c3ccc(OC)cc3)n2)CC1 | inconclusive [inhibitor, partial curve] |  |
| CCCC1(C(=O)O)NC(c2cccc(OC)c2O)C2C(=O)N(c3ccccc3)C(=O)C21 (stereo unspecified) | inconclusive [inhibitor, single point] |  |
| CCOc1ccc(-c2nc3ccccc3c(=O)o2)cc1 | inconclusive [inhibitor, partial curve] |  |
| CCC(C)N=Cc1c(NCc2ccco2)nc2c(C)cccn2c1=O (stereo unspecified) | inconclusive [inhibitor, partial curve] |  |
| CC(=O)Oc1c(-c2ccco2)oc2ccccc2c1=O | inconclusive [inhibitor, single point] |  |
| CCN1C(=O)/C(=C\N2CCOCC2)SC1=S | inconclusive [inhibitor, partial curve] |  |
| COCCN1Cc2cc3cc(C)ccc3nc2SC1=Nc1cccc(OC)c1 | inconclusive [inhibitor, partial curve] |  |
| Cc1c(NC(=O)C(C)OC(=O)/C=C/c2ccc3c(c2)OCO3)c(=O)n(-c2ccccc2)n1C (stereo unspecified) | inconclusive [inhibitor, partial curve] |  |
| CC(C)C1OC(c2cccc(NC(=O)c3cccs3)c2)OCC1(C)C (stereo unspecified) | inactive |  |
| Cc1ccc(-c2nn(-c3ccccc3)cc2CN(Cc2ccccc2)C(=O)c2ccco2)o1 | active: 11.2 µM |  |
| CCN(CC)S(=O)(=O)c1ccc2[nH]c(=O)cc(C(=O)Nc3ccc(C)c(S(=O)(=O)N(CC)CC)c3)c2c1 | inconclusive [inhibitor, single point] |  |
| C(/CCc1ccccc1)=N\n1cnnc1 | inactive |  |
| CCCCNc1nc(SC)nc2nc[nH]c12 |  | inactive: 6.04% [at 13.5 µM] |
| COc1cc2oc(=O)cc(-c3cccc(-c4ccc(C(F)(F)F)cc4)c3)c2c(OC)c1OC | inconclusive [inhibitor, single point] |  |
| CCOC(=O)Cc1csc(SCn2nnc3ccccc3c2=O)n1 | inconclusive [inhibitor, single point] |  |
| O=C(O)[C@@H](c1ccccc1)N1Cc2ccccc2C1=O | inconclusive [inhibitor, single point] |  |
| CCOC(=O)c1sc(NC(=O)CNCc2cccnc2)c(C(=O)OCC)c1C | inconclusive [inhibitor, full curve] |  |
| C=C(C)CC(NCCc1ccccc1)c1ccco1 (stereo unspecified) | inconclusive [inhibitor, single point] |  |
| O=C(N/N=C/c1cc([N+](=O)[O-])c(N2CCOCC2)cc1N1CCOCC1)c1cccnc1 | inconclusive [inhibitor, single point] |  |
| COc1ccccc1C(=O)Nc1nc(-c2ccc3c(c2)OCCO3)cs1 | inconclusive [inhibitor, single point] |  |
| CS(=O)(=O)c1sc(C#N)c2c1C(=O)CC(c1ccccc1)C2 (stereo unspecified) | inactive |  |
| CCOCCCNC(=O)c1ccc(N2CCOCC2)c(NS(=O)(=O)c2ccc(OC)cc2)c1 | active: 2.51 µM |  |
| O=C(CN1CCC(O)(c2ccccc2)CC1)Nc1ccc2c(c1)OCCO2 | inconclusive [inhibitor, single point] |  |
| O=c1cc(-c2ccccc2Cl)oc2cc(O)cc(O)c12 | inconclusive [inhibitor, partial curve, poor fit] |  |

| SMILES | Potency | activity, negative = inhibition |
| --- | --- | --- |
| COc1cccc(C2CCCN2Cc2nc(-c3cnccn3)no2)c1 (stereo unspecified) | inactive |  |
| CC(=O)Nc1ncc2c(n1)CC(c1ccco1)CC2=O (stereo unspecified) | inactive |  |
| Cc1ccc(C(=O)Nc2nc3ccccc3c(=O)s2)cc1 | inconclusive [inhibitor, single point] |  |
| CCCn1c(NC(=O)c2ccc(F)cc2)nc2ccccc21 | inconclusive [inhibitor, single point] |  |
| O=[N+]([O-])c1ccc(N2CCN(C(=S)NCc3ccc(Cl)cc3)CC2)cc1 | active: 11.2 µM |  |
| CCOC(=O)c1c(NC(=S)NCCc2ccccc2)sc2c1CC(C(C)C)OC2 (stereo unspecified) | active: 25.1 µM |  |
| Cc1ccccc1-n1cc(CNC(=O)CC2C(=O)NCCN2C/C=C/c2ccccc2)cn1 (stereo unspecified) | inactive |  |
| CCN(C(=O)COC(=O)c1cc(-c2ccccc2)nc2c1c(C)nn2-c1ccccc1)C1CCS(=O)(=O)C1 (stereo unspecified) | inconclusive [inhibitor, single point] |  |
| CCOc1ccc(C2Nc3ccc4ccccc4c3-c3c2c(=O)oc2ccccc32)cc1 (stereo unspecified) | inconclusive [inhibitor, partial curve] |  |
| COc1ccc(NC(=O)CSc2nc3ccsc3c(=O)n2CCCCCC(=O)O)cc1 | inactive |  |
| O=C(N1CCN(c2ccc(F)cc2)CC1)C1(c2cccs2)CCOCC1 | inactive |  |
| Cc1nnc(SCC(=O)N2CCN(S(=O)(=O)c3ccccc3)CC2)[nH]c1=O | inconclusive [inhibitor, single point] |  |
| Cc1cccc(NC(=O)CSc2nnc(-c3ccc(S(=O)(=O)N4CCCC4)cc3)o2)c1 | inconclusive [inhibitor, single point] |  |
| O=C(CSc1nnnn1-c1ccc2c(c1)OCCO2)OC1CCCCC1 | active: 5.01 µM |  |
| O=C(CSCc1cccc(Cl)c1)Nc1ccccc1-c1ccccc1 | inconclusive [inhibitor, single point] |  |
| CCOc1ccc(C(=S)N2CCOCC2)cc1OCC | inconclusive [inhibitor, single point] |  |
| Cc1ccc(NC2=CC(=O)C(=O)c3ccccc32)cc1 | inconclusive [inhibitor, single point] |  |
| Fc1ccccc1Cn1nnc2c(-n3ccnc3)ncnc21 | inconclusive [inhibitor, single point] |  |
| COc1ccc(N=Cc2cc(Cc3ccccc3Cl)cc([N+](=O)[O-])c2O)cc1OC | active: 7.08 µM |  |
| COC(=O)c1c(NS(=O)(=O)c2cccs2)sc2c1CCCC2 | inconclusive [inhibitor, partial curve] |  |
| COc1ccc(-c2[nH]ncc2/C=N\NS(=O)(=O)c2ccc(Cl)cc2)cc1 | inconclusive [inhibitor, single point] |  |
| c1ccn2c(c1)nc1c2nc2ccccn21 | inconclusive [inhibitor, partial curve] |  |
| CCN(CC)c1nc(C)c2c(c1C#N)CC(C)(C)OC2 | inconclusive [inhibitor, single point] |  |
| COc1ccccc1Cn1c(=S)[nH]c2cc(C(=O)N3CCN(C)CC3)ccc2c1=O | inconclusive [inhibitor, partial curve] |  |

| SMILES | Potency | activity, negative = inhibition |
| --- | --- | --- |
| CN1c2ccccc2Oc2c(c(=O)n(C)c(=O)n2C)C1c1cccc([N+](=O)[O-])c1 (stereo unspecified) | inactive |  |
| O=C(N/N=C/c1cccc([N+](=O)[O-])c1)C1COc2ccccc2O1 (stereo unspecified) | inconclusive [inhibitor, single point] |  |
| Cc1ccc(NC(=O)NC(=O)COc2ccc(Cl)cc2Cl)c(C)c1 | inactive |  |
| c1ccc(C2(CNc3ccccn3)CCCC2)cc1 | inactive |  |
| NNC(=O)c1ccc(COc2cccc3cccnc23)cc1 | active: 14.1 µM |  |
| COc1ccc2c(c1)c(=O)c(C(=O)c1ccccc1)cn2Cc1ccc(C)cc1 | inconclusive [inhibitor, single point] |  |
| COc1ccc2cc(C(=O)Nc3c(C)n(C)n(-c4ccccc4)c3=O)sc(=O)c2c1OC | inactive |  |
| O=C(CN1C(=O)CSc2ccccc21)NCCC1=CCCCC1 | inactive |  |
| O=C(NC1CCCCCC1)C(=S)NCCc1ccccc1 | active: 11.2 µM |  |
| COC(=O)CCCC1=CC2=C(c3ccccc3)C(=O)C(C)(OC(=O)C3CCCC3)C(=O)C2=CN1CC(C)C (stereo unspecified) | inconclusive [inhibitor, partial curve] |  |
| CC(C)N1CCc2c(sc(N)c2C#N)C1 | inconclusive [inhibitor, partial curve] |  |
| COc1cc(C2Nc3cccc4cccc(c34)N2)cc(OC)c1O | inconclusive [inhibitor, partial curve] |  |
| COc1ccc(C(=O)N2CCC3(CCCN(Cc4cc(C(F)(F)F)cc(C(F)(F)F)c4)C3)CC2)cc1 | inactive |  |
| COc1ccc(NS(=O)(=O)c2cc(NC(=O)c3cnc(C)cn3)ccc2N2CCCC2)cc1 | inconclusive [inhibitor, single point] |  |
| O=C(O)[C@H]1[C@H](C(=O)O)[C@H](C(=O)O)C[C@@H]1C(=O)O |  | inactive: 1.34% [at 13.5 µM] |
| COc1ccc(OCC(=O)Nc2ccc(NC(=O)c3ccco3)cc2)cc1 | inconclusive [inhibitor, partial curve, poor fit] |  |
| Cc1nc2c3ccccc3nc(SCC(=O)N3CC(C)CC(C)C3)n2n1 (stereo unspecified) | active: 7.08 µM |  |
| CC1=Nn2c(nnc2C2CCCCC2)SC1 | inconclusive [inhibitor, single point] |  |
| CN(C(=O)c1ccc(=O)n(Cc2ccc(Cl)cc2)c1)c1ccccc1 | active: 14.1 µM |  |
| NC(=O)c1c(NC(=S)Nc2ccc(F)cc2)sc2c1CCCC2 | active: 10 µM |  |
| O=C(NCC1COc2ccccc2O1)c1ccc(Cl)cc1 (stereo unspecified) | inactive |  |
| c1ccc(-c2ccc(N3CC[C@@]4(CCCNC4)C3)cc2)cc1 | inconclusive [inhibitor, partial curve] |  |
| O=C(Nc1ccccc1N1CCN(C(=O)c2ccc(Cl)cc2)CC1)c1cc2ccccc2o1 | inconclusive [inhibitor, partial curve] |  |
